According to PubChem BioAssay AID2546 (National Center for Advancing Translational Sciences (NCATS), 2010):
The whole screen tested about 310,000 compounds, of which about 11,000 (3.5%) were called active. This list was built around the results that the source calls inconclusive (neither active nor inactive); the mix of calls is not that of the screen. Calls follow the shape of the dose curve; as a rule, active = well fitted inhibition curve with a large enough effect; inconclusive = small, poorly fitted or top-dose-only effect, or effect the other way; inactive = flat fitted curve, though single readings scatter. No potency is given beside an inconclusive call; the fits are too rough.

Experiment: VP16 counterscreen qHTS for inhibitors of ROR gamma transcriptional activity;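 also: Gal4-VP16 expression switched on by copper sulfate through the metallothionein promoter; nearly all actives have a fitted effect of over 50% in size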
Settings: Drosophila S2 Gal4-VP16 UAS-luciferase, luminescence, 20 h; series mostly up to 53.6 µM
Potency is read from the fitted curve at half-maximal effect; tags tell the direction and shape of the fitted curve.

Row | SMILES | Potency
1 | Cc1cccc(N=c2oc3cc(O)ccc3cc2C(N)=O)c1 | active: 14.1 µM
2 | COc1ccc(N(C)C(=O)c2cc3c(s2)-c2ccc(Cl)cc2S(=O)(=O)C3)c(OC)c1 | inactive
3 | O=C(Nc1ccc(F)c(F)c1)c1ccc(F)c(S(=O)(=O)N2CCC3(CC2)OCCO3)c1 | inconclusive [inhibitor, single point]
4 | COC(=O)CN1C(c2ccc(Cl)cc2)=Nc2ccc(Cl)cc2C1c1ccccc1 (centres undefined) | inconclusive [inhibitor, single point]
5 | Cc1cccc(N(C(=O)c2ccc(Cl)cc2)C2CS(=O)(=O)CC2OC(=O)c2ccc(Cl)cc2)c1 (centres undefined) | inactive
6 | CCCCCOc1ccc(NC(=O)CSc2cccc3cccnc23)cc1 | inconclusive [inhibitor, single point]
7 | CN(C)S(=O)(=O)N1CCC(Oc2cccc(C(=O)NCCCC3CCCC3)c2)CC1 | inconclusive [inhibitor, single point]
8 | O=C(NCc1ccccc1)c1ccc(Br)cc1Br | inconclusive [activator, single point]
9 | Cc1c(N)cccc1-c1nc2ccccc2[nH]1 | inconclusive [inhibitor, single point]
10 | CCN(CC)CCNC(=O)c1ccc(Cl)c(S(=O)(=O)Nc2ccc(Cl)cc2)c1 | active: 20 µM
11 | O=C(Nc1nc2ccccc2n1Cc1ccccc1)c1ccc(COc2ccccc2[N+](=O)[O-])o1 | inconclusive [inhibitor, single point]
12 | Cn1c(=O)cc(SCC(=O)N2CCN(C(=O)c3ccco3)CC2)c2ccccc21 | inconclusive [activator, partial curve]
13 | CCCNC(=S)N1CCN(C(c2ccccc2)c2ccccc2)CC1 | active: 17.8 µM
14 | CC(C)(C)C(=O)NC(Nc1cccc2cccnc12)C(Cl)(Cl)Cl (centres undefined) | inconclusive [inhibitor, single point]
15 | CC1(C)CNC(=O)c2sc(N3CCOCC3)nc2C1 | inactive
16 | Cc1cc(C)cc(NC(=S)N2CCN(c3ccc(F)cc3)CC2)c1 | inactive
17 | O=C(Nc1cc(Sc2ccccn2)cc([N+](=O)[O-])c1)c1cccc(Cl)c1 | inconclusive [inhibitor, single point]
18 | Cc1[nH]n(C(N)=S)c(=O)c1C(c1ccccc1)C(C#N)C#N (centres undefined) | active: 10 µM
19 | Cc1ccsc1/C=C1/C(=O)NN(c2ccccc2)C1=O | inconclusive [activator, single point]
20 | COc1ccc(NC(=S)Nc2ccc(F)cc2)cc1 | inconclusive [inhibitor, single point]
21 | Cc1nccn1CC(=O)N/N=C/c1ccccc1O | inconclusive [inhibitor, single point]
22 | CSc1cccc(NC(=S)Nc2ccc(F)cc2)c1 | inconclusive [inhibitor, partial curve]
23 | C1=Nc2c(NCc3ccccc3)ncnc2Oc2ccccc21 | inconclusive [activator, full curve]
24 | COc1ccccc1N1CCN(/N=C/c2ccc([N+](=O)[O-])cc2)CC1 | inconclusive [inhibitor, single point]
25 | O=C(Cc1ccc(Br)cc1)NC1CCN(Cc2ccccc2)CC1 | inactive

Row | SMILES | Potency
26 | CCCc1[nH]nc2c1C(c1cn[nH]c1-c1ccc(F)cc1)C(C#N)=C(N)O2 (centres undefined) | inconclusive [inhibitor, single point]
27 | COC(=O)c1c(C)[nH]c(O)c1C=Nc1ccc(C(C)C)cc1 | inconclusive [inhibitor, partial curve]
28 | CC(C)(Oc1ccc(Br)cc1Cl)C(=O)Nc1ccon1 | inactive
29 | CCOC(=O)c1sc(N/N=C/c2cccc(C)c2)nc1C | inconclusive [inhibitor, partial curve]
30 | C/C(=N\Nc1nc2ccccc2[nH]1)c1cccs1 | active: 6.31 µM
31 | Nc1c(C(=O)NCc2ccccc2)sc2nc(N3CCOCC3)c3c(c12)CCCC3 | inactive
32 | O=C1c2cccc3cccc(c23)N1Cc1cccc(F)c1 | inactive
33 | O=C(NCCc1c[nH]c2ccccc12)c1ccc([N+](=O)[O-])cc1 | inconclusive [activator, single point]
34 | O=C(CNc1ccc2ccccc2c1)NNC1=NCCC1 | active: 3.98 µM
35 | Cc1ccc(C(=O)N2CCN=C2SCc2ccc([N+](=O)[O-])cc2)cc1 | inconclusive [inhibitor, partial curve]
36 | Fc1ccc(-c2ccc(CNCc3ccccn3)o2)cc1Cl | inconclusive [inhibitor, single point]
37 | O=C(Nc1ccccc1)c1ccccc1NS(=O)(=O)c1ccc(Cl)s1 | inconclusive [inhibitor, single point]
38 | C=C1CCN(C(C)C(=O)OCc2ccc(C)cc2)S(=O)(=O)c2ccccc21 (centres undefined) | inconclusive [inhibitor, single point]
39 | CCC(C)(C)n1nnnc1C(c1ccc2ncccc2c1)N1CCN(c2ccc(O)cc2)CC1 (centres undefined) | inactive
40 | Fc1ccc(CNC(=S)NC2CCCC2)cc1 | inconclusive [inhibitor, single point]
41 | CCc1ccc(-c2cn3nc(C)c(C)nc3n2)cc1 | inconclusive [inhibitor, single point]
42 | O=C(Oc1ccc(-c2nc(-c3ccccn3)no2)cc1)c1ccccc1 | active: 6.31 µM
43 | COC(=O)N1CCC[C@@]2(CCN(c3ccccn3)C2)C1 | inactive
44 | CCn1c(O)c(N=Nc2ccc(Cl)c(C(=O)O)c2)c2ccccc21 | inconclusive [inhibitor, single point]
45 | O=C(Cc1cc(=O)[nH][nH]1)N/N=C/C(Cl)=C/c1ccccc1 | inactive
46 | C=C(C)C1CC=C(C)/C(=N/NC(=S)Nc2ccccc2)C1 (centres undefined) | active: 1.12 µM
47 | Cc1ccc2cc(/C=N/Nc3nc4ccccc4[nH]3)c(Cl)nc2c1 | active: 1.26 µM
48 | CCOc1[nH]n(-c2ccc(Cl)cc2)c(=O)c1C=Nc1ccc(O)cc1 | inconclusive [inhibitor, single point]
49 | CC(=O)N1CCc2cc(S(=O)(=O)NCCC(=O)NCCc3ccc(C)cc3)ccc21 | active: 3.55 µM
50 | COc1ccc(/C=N\NC(=O)/C(=C\Nc2nccc(C)n2)NC(=O)c2ccccc2)cc1 | inconclusive [inhibitor, single point]

Row | SMILES | Potency
51 | Cc1oc(-c2ccccc2Cl)nc1CSCC(=O)O | active: 7.94 µM
52 | O=C(CCl)Nc1ccc(N=Nc2ccccc2)cc1 | inconclusive [inhibitor, single point]
53 | CCN(CC)S(=O)(=O)c1ccc(OC)c(NC(=S)Nc2cccc(C)c2)c1 | inconclusive [inhibitor, single point]
54 | COCCCNC(=S)N(Cc1ccccc1)Cc1ccccc1 | inconclusive [inhibitor, single point]
55 | CC(C)(C)CC(C)(C)NC(=S)Nc1ccc2nc(-c3ccccn3)c(-c3ccccn3)nc2c1 | inconclusive [inhibitor, single point]
56 | C/C(=N\Nc1ccccc1[N+](=O)[O-])c1ccccc1O | inconclusive [activator, full curve, poor fit]
57 | CCC1CSC(Nc2ccc(C(=O)/C=C/c3cccc(C)c3)cc2)=N1 (centres undefined) | inconclusive [inhibitor, single point]
58 | Cc1cc(C)c(S(=O)(=O)N(CC(=O)NCc2cccnc2)C2CCCCC2)c(C)c1 | inconclusive [inhibitor, single point]
59 | CNC(=O)C(=O)NCCN1CCN(C(=O)c2ccc([N+](=O)[O-])cc2)CC1 | inactive
60 | O=C(O)c1ccc(N=Nc2c(O)[nH]c3ccccc23)cc1 | active: 35.5 µM
61 | CCOC(=O)c1cc(-c2nnc(-c3ccc(Oc4ccccc4)cc3)o2)c(C)nc1C | inactive
62 | COc1ccc(NC(=O)C2CC(c3ccccc3O)=NO2)cc1OC (centres undefined) | inconclusive [inhibitor, single point]
63 | CCOc1ccc2nc(NC(=O)c3ccccn3)sc2c1 | active: 2.82 µM
64 | Nc1nc(Nc2ccccc2F)nc(N2CCCC2)c1[N+](=O)[O-] | inconclusive [activator, full curve]
65 | Cc1ccc(C)c(SCc2noc(C(=O)NCC3CCCO3)c2C(=O)O)c1 (centres undefined) | inactive
66 | CC(C)N=c1scc(-c2ccco2)n1/N=C/c1ccc(O)c(O)c1 | active: 15.8 µM
67 | CCCC(=O)Nc1ccc(C2C(=O)c3ccccc3C2=O)cc1 | active: 11.2 µM
68 | COc1ccc(NC(=O)N2CCN(c3cccc(C(F)(F)F)c3)CC2)cc1OC | inconclusive [inhibitor, single point]
69 | CCOc1cc(/C=C2\CCn3c2nc2cc(Cl)ccc2c3=O)ccc1O | inconclusive [inhibitor, single point]
70 | COc1ccc(N2CCN(CC(O)c3c[nH]c4ccc(OC)cc34)CC2C)cc1 (centres undefined) | inconclusive [inhibitor, single point]
71 | CCOC(=O)c1cc(-c2ccco2)nc2c1c(C)nn2-c1cccc(Cl)c1 | inactive
72 | CCOc1nc(SCCOc2ccc(C)cc2)nc(N(C)C)n1 | inactive
73 | C=CCOc1ccc(/C=C2\SC(N)=NC2=O)cc1OC | inactive
74 | Cc1ccc(NC(=O)CCc2nnc3ccc(NCc4ccco4)nn23)cc1F | inconclusive [inhibitor, single point]
